Part of at least one peptide drawing is inferred or uncertain, most often the ends. Numbered stars: 1 amine (or outer) side, 2 acyl side, 3 side chain; on linkers, the order of the positions; unused ones are H or OH. Square brackets hold non-standard residues; d marks the D form. Peptide text beside a SMILES is read from it. * marks the point of attachment. Phe(4-NH(5-NH2triazol-3-yl)) = Nc1nc(Nc2ccc(C[C@H](N)C(=O)O)cc2)n[nH]1; X1 = Nc1nc(Nc2ccc(C[C@@H](N[*:1])C(=O)[*:2])cc2)n[nH]1; Triazol3yl(1,2,4-5-NH2) = Nc1nc(*)n[nH]1; dPhe(4-Cl) = N[C@H](Cc1ccc(Cl)cc1)C(=O)O; d2Nal = N[C@H](Cc1ccc2ccccc2c1)C(=O)O; Lys(iPr) = CC(C)NCCCC[C@H](N)C(=O)O; d3Pal = N[C@H](Cc1cccnc1)C(=O)O; NMeL = CN[C@@H](CC(C)C)C(=O)O; Nicotinoyl = O=C(c1cccnc1)*; dOrn = NCCC[C@@H](N)C(=O)O
Columns and labels:
[1] = tested on: mature female Sprague-Dawley rats; assay: in vivo test of effectiveness to prevent ovulation in female rats; design: species or system rat; details: for Rats Ovulating: injected at about noon on the day of proestrus, rats ovulating/rats treated
[2] = tested on: adult castrate male Sprague-Dawley rats; assay: LH levels in the bloodstream after a single IV bolus injection; type: in vivo, rat; details: 50 microgram IV single bolus

| SMILES | Rats Ovulating ([1]; dosage 0.5 micrograms) | Rats Ovulating ([1]; dosage 1.0 micrograms) | Rats Ovulating ([1]; dosage 2.5 micrograms) | Rats Ovulating ([1]; dosage 5.0 micrograms) | further results |
| --- | --- | --- | --- | --- | --- |
| CC(=O)N[C@H](Cc1ccc2ccccc2c1)C(=O)N[C@H](Cc1ccc(Cl)cc1)C(=O)N[C@H](Cc1cccnc1)C(=O)N[C@@H](CO)C(=O)N[C@@H](Cc1ccc(Nc2n[nH]c(N)n2)cc1)C(=O)N[C@H](Cc1ccc(Nc2n[nH]c(N)n2)cc1)C(=O)N[C@@H](CC(C)C)C(=O)N[C@@H](CCCCNC(C)C)C(=O)N1CCC[C@H]1C(=O)N[C@H](C)C(N)=O [Peptide 103A] (Ac-[d2Nal][dPhe(4-Cl)][d3Pal]S[Phe(4-NH(5-NH2triazol-3-yl))][X1]L[Lys(iPr)]P[dA]-NH2) | 7/8 | 0/7 | 0/8 |  | duration of biological effect (LH suppression) ([2]; castrate male rats): very long-acting duration of biological effect; suppression of the level of circulating LH in the bloodstream ([2]; LH at about 3, 24, 36 and 48 hours, versus control and Nal-Glu antagonist): surprisingly effective to suppress the level of circulating LH in the bloodstream of male rats |
| CC(=O)N[C@H](Cc1ccc2ccccc2c1)C(=O)N[C@H](Cc1ccc(Cl)cc1)C(=O)N[C@H](CCCNc1n[nH]c(N)n1)C(=O)N[C@@H](CO)C(=O)N[C@@H](Cc1ccc(O)cc1)C(=O)N[C@H](Cc1cccnc1)C(=O)N[C@@H](CC(C)C)C(=O)N[C@@H](CCCCNC(C)C)C(=O)N1CCC[C@H]1C(=O)N[C@H](C)C(N)=O [Peptide 125A] (Ac-[d2Nal][dPhe(4-Cl)][dOrn](Triazol3yl(1,2,4-5-NH2))SY[d3Pal]L[Lys(iPr)]P[dA]-NH2) |  |  | 1/7 | 1/8 |  |
| CC(=O)N[C@H](Cc1ccc2ccccc2c1)C(=O)N[C@H](Cc1ccc(Cl)cc1)C(=O)N[C@H](Cc1cccnc1)C(=O)N[C@@H](CO)C(=O)N[C@@H](CCCCNC(=O)c1cccnc1)C(=O)N[C@H](CCCCNC(=O)c1cccnc1)C(=O)N[C@@H](CC(C)C)C(=O)N[C@@H](CCCCNc1nc(N)n[nH]1)C(=O)N1CCC[C@H]1C(=O)N[C@H](C)C(N)=O [Peptide 105A] (Ac-[d2Nal][dPhe(4-Cl)][d3Pal]SK(Nicotinoyl)[dK](Nicotinoyl)LK(Triazol3yl(1,2,4-5-NH2))P[dA]-NH2) |  |  |  | 4/6 |  |
| CC(=O)N[C@H](Cc1ccc2ccccc2c1)C(=O)N[C@H](Cc1ccc(Cl)cc1)C(=O)N[C@H](Cc1cccnc1)C(=O)N[C@@H](CO)C(=O)N[C@@H](Cc1ccc(Nc2n[nH]c(N)n2)cc1)C(=O)N[C@H](Cc1ccc(Nc2n[nH]c(N)n2)cc1)C(=O)N[C@@H](CC(C)C)C(=O)N[C@@H](CCCCNC(C)C)C(=O)N1CCC[C@H]1C(=O)NCC(N)=O [Peptide 125F] (Ac-[d2Nal][dPhe(4-Cl)][d3Pal]S[Phe(4-NH(5-NH2triazol-3-yl))][X1]L[Lys(iPr)]PG-NH2) |  |  |  |  | biological potency in vivo compared with the parent peptide ([1]; C-terminus changed instead of D-Ala-NH2): slightly less biologically potent than Peptide 103A |
| CC(=O)N[C@H](Cc1ccc2ccccc2c1)C(=O)N[C@H](Cc1ccc(Cl)cc1)C(=O)N[C@H](Cc1cccnc1)C(=O)N[C@@H](CO)C(=O)N[C@@H](Cc1ccc(Nc2n[nH]c(N)n2)cc1)C(=O)N[C@H](Cc1ccc(Nc2n[nH]c(N)n2)cc1)C(=O)N(C)[C@@H](CC(C)C)C(=O)N[C@@H](CCCCNC(C)C)C(=O)N1CCC[C@H]1C(=O)N[C@H](C)C(N)=O [Peptide 125C] (Ac-[d2Nal][dPhe(4-Cl)][d3Pal]S[Phe(4-NH(5-NH2triazol-3-yl))][X1][NMeL][Lys(iPr)]P[dA]-NH2) | 6/10 | 0/8 |  |  |  |
| CC(=O)N[C@H](Cc1ccc2ccccc2c1)C(=O)N[C@H](Cc1ccc(Cl)cc1)C(=O)N[C@H](CCCCNc1nc(N)n[nH]1)C(=O)N[C@@H](CO)C(=O)N[C@@H](Cc1ccc(O)cc1)C(=O)N[C@H](Cc1cccnc1)C(=O)N[C@@H](CC(C)C)C(=O)N[C@@H](CCCNC(=N)N)C(=O)N1CCC[C@H]1C(=O)N[C@H](C)C(N)=O [Peptide 117A] (Ac-[d2Nal][dPhe(4-Cl)][dK](Triazol3yl(1,2,4-5-NH2))SY[d3Pal]LRP[dA]-NH2) |  | 4/9 | 0/7 |  |  |

Source: patent US5296468A, “GnRH analogs” (The Salk Institute for Biological Studies, priority 1993, dated 1994)
